In US8153787B2 (priority 2005, dated 2012):
Converted amounts (≈) assume the structure as drawn. Where two headings read alike, the source gives them in different places.

Legend:
in vitro = details: human
[1] = test system: primary human keratinocytes
HCV subgenomic replicon = test: microbe, parasite or virus in culture; details: Hepatitis C virus, Huh-5-2, read-out: EC50 HCV subgenomic replicon replication
Herpesviruses = test: organism not typed; format: cell-based; details: read-out: EC50 against Herpesviruses
[2] = CC50, growing RPTEC #4, 7 days, Medium refreshing
[3] = CC50, growing RPTEC #4, 7 days, No medium refreshing
[4] = CC50, resting RPTEC #4, 16 days

| Compound | CC50 (in vitro; [2]) [µg/mL] | CC50 (in vitro; [3]) [µg/mL] | CC50 (in vitro; CC50, growing RPTEC #6, 5 days) [µg/mL] | CC50 (in vitro; CC50, growing RPTEC #6, 6 days) [µg/mL] | CC50 (in vitro; CC50, growing RPTEC #6, 7 days) [µg/mL] | CC50 (in vitro; CC50, growing RPTEC #6, 8 days) [µg/mL] | CC50 (in vitro; [4]) [µg/mL] | CC50 (in vitro; CC50, resting RPTEC #7, 5 days) [µg/mL] | CC50 (in vitro; CC50, resting RPTEC #7, 7 days) [µg/mL] | Cytotoxicity Cell morphology (MCC) HEL cells (HEL cells; human) | Cytotoxicity Morphology (MCC) (HEL cells; human) [μg/ml] | other results |
| --- | --- | --- | --- | --- | --- | --- | --- | --- | --- | --- | --- | --- |
| Nc1ncn(C[C@@H](CO)OCP(=O)(O)O)c(=O)n1 [Compound 3, (S)-1-[3-hydroxy-2-(Phosphonomethoxy)propyl]-5-azacytosine] | > 50 | > 50 | ≥ 200 | ≥ 200 | 136 (≈ 485 µM) | 149 (≈ 533 µM) | > 50 | ≥ 200 | ≥ 200 | >50 | >100 | MCC [1]: 50 µg/mL |
| NC(=NC(=O)NC[C@@H](CO)OCP(=O)(O)O)NC=O.[Na] [Compound 3a, Sodium 3-formyl-2-{[(2S)-3-hydroxy-2-(phosphono-methoxy)propyl]carbamoyl}guanidine] |  |  |  |  |  |  |  |  |  |  |  | CC50 at 7 days (in vitro; CC50, growing RPTEC #4, 7 days, Medium refreshing, growing RPTEC #4, 7 days of incubation): > 50 µg/mL; CC50 at 7 days (in vitro; CC50, growing RPTEC #4, 7 days, No medium refreshing, growing RPTEC #4, 7 days of incubation): > 50 µg/mL; CC50 at 5 days (in vitro; CC50, growing RPTEC #6, 5 days, Table 11 D, growing RPTEC #6, 5 days, without medium refreshing): > 200 µg/mL; CC50 at 6 days (in vitro; CC50, growing RPTEC #6, 6 days, Table 11 C, growing RPTEC #6, 6 days, without medium refreshing): > 200 µg/mL; CC50 at 7 days (in vitro; CC50, growing RPTEC #6, 7 days, Table 11 D, growing RPTEC #6, 7 days, without medium refreshing): > 200 µg/mL; CC50 at 8 days (in vitro; CC50, growing RPTEC #6, 8 days, Table 11 C, growing RPTEC #6, 8 days, without medium refreshing): > 200 µg/mL; CC50 at 16 days (in vitro; CC50, resting RPTEC #4, 16 days, resting RPTEC #4, 16 days of incubation without medium refreshing): > 50 µg/mL; CC50 at 5 days (in vitro; CC50, resting RPTEC #7, 5 days, Table 11 E, resting RPTEC #7, column head 5 days, without medium refreshing): > 200 µg/mL; CC50 at 7 days (in vitro; CC50, resting RPTEC #7, 7 days, Table 11 E, resting RPTEC #7, column head 7 days, without medium refreshing): > 200 µg/mL; Cytotoxicity Cell morphology (MCC) HEL cells (HEL cells; Table 1, HEL cells): 100; Cytotoxicity Morphology (MCC) (HEL cells; Table 2, HEL cells): >100 μg/ml |
| NC1=NC(=O)N(C[C@@H](CO)OCP(=O)(O)O)CN1 [5,6-dihydro derivative of HPMP-5-azaC, (S)-1-[3-Hydroxy-2-(phosphonomethoxy)propyl]-5,6-dihydro-5-azacytosine] |  |  |  |  |  |  |  |  |  |  |  | EC50 (HCV subgenomic replicon): 24 µg/mL (≈ 85 µM); EC50 (Herpesviruses): 3 to 12 µg/mL (≈ 10.6 to 42.5 µM) |
| Nc1cnn(C[C@@H](CO)OCP(=O)(O)O)c(=O)n1 [HPMP-6-azaC analogue, (S)-1-[3-hydroxy-2-(phosphonomethoxy)propyl]-6-azacytosine] |  |  |  |  |  |  |  |  |  | >100 | >100 |  |
| CCCCCCCCCCCCCCCCOCCOP1(=O)CO[C@@H](Cn2cnc(N)nc2=O)CO1 (stereo partly drawn) [Compound 12, hexadecyloxyethyl ester of 1-{[(5S)-2-Hydroxy-2-oxido-1,4,2-dioxaphosphinan-5-yl]methyl}-5-azacytosine] |  |  |  |  |  |  |  |  |  | >5 |  |  |
| Nc1ncn(C[C@H]2COP(=O)(O)CO2)c(=O)n1 [Compound 11, 1-{[(5S)-2-Hydroxy-2-oxido-1,4,2-dioxaphosphinan-5-yl]methyl}-5-azacytosine] |  |  |  |  |  |  |  |  |  | >100 | >100 |  |
| NC(N)=NC(=O)NC[C@@H](CO)OCP(=O)(O)O [Compound 10, 2-{[(2S)-3-Hydroxy-2-(Phosphonomethoxy)propyl]carbamoyl}guanidine] | > 50 | > 50 | > 200 | > 200 | > 200 | > 200 | > 50 | > 200 | > 200 |  |  |  |
| CCCCCCCCCCCCCCCCCCOP1(=O)CO[C@@H](Cn2cnc(N)nc2=O)CO1 (stereo partly drawn) [Compound 15, octadecyl ester of 1-{[(5S)-2-hydroxy-2-oxido-1,4,2-dioxaphosphinan-5-yl]methyl}-5-azacytosine] |  |  |  |  |  |  |  |  |  | ≧100 |  |  |
| Nc1nc2c(ncn2COCCO)c(=O)[nH]1 [Acyclovir, reference compound] |  |  |  |  |  |  |  |  |  |  |  | Cytotoxicity Morphology (MCC) (HEL cells; Table 4, HEL cells): >100 μg/ml |
| Nc1ccn(C[C@@H](CO)OCP(=O)(O)O)c(=O)n1 [HPMPC, (S)-1-(3-hydroxy-2-phosphonylmethoxypropyl)cytosine, reference compound] | 45.9 (≈ 165 µM) | 44.2 (≈ 158 µM) | 42.2 (≈ 151 µM) | 42.2 (≈ 151 µM) | 55.6 (≈ 199 µM) | 14.2 (≈ 50.9 µM) | 12.7 (≈ 45.5 µM) | 94.6 (≈ 339 µM) | 86.8 (≈ 311 µM) | 400 | >100 | MCC [1]: 50 µg/mL |
